The list shows a part of the results. The data describe in vitro nicking of single-stranded DNA by Rep domains at 3 µM enzyme and 37 °C for 1 h; the strands have 90 letters, of which the middle is given. The score is log2 (uncut reads / reads without enzyme); uncut sequences lie near 0, cut ones below; no hit call is given. Shares of all reads are compared; values above 0 arise when much of the pool is cut.
Experiments:
Test in all cases: uncleaved DNA left, log2 of reads against the no-enzyme library (log2 ratio); higher = less cleavage (more negative = more Rep cleavage of the k-mer); sequences stand for … in CTCGTCCG…ACCGGAGA
[1] = test system: T1, Rep nickase domain of Muscovy duck circovirus
T1 sequence (Rep 1-111, printed without the tag): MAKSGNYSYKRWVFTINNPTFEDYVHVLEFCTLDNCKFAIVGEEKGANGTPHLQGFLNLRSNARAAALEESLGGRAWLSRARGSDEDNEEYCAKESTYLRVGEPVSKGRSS
Protocol: (§1)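 A pool of 90-nt single-stranded DNAs with seven random bases just before the constant AC of the nick site (name = the seven bases) was cut by 3 µM recombinant His6-SUMO-tagged Rep nickase domain (300 nM DNA, 50 mM HEPES pH 8.0, 50 mM NaCl, 1 mM MnCl2, 1 h, 37 °C, three replicates). Uncut DNA was amplified and sequenced.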

[2] = test system: T2, Rep nickase domain of banana bunchy top virus
T2 sequence (Rep 1-94, printed without the tag): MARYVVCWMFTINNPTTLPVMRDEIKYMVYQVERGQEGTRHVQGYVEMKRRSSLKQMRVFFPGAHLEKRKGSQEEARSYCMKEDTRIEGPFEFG
Protocol: as §1

[3] = test system: T3, Rep nickase domain of cabbage leaf curl virus
T3 sequence (Rep 1-116, printed without the tag): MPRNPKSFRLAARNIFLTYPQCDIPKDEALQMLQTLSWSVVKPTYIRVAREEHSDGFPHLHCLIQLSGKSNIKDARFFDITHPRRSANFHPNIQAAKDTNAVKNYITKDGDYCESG
Protocol: as §1

[4] = test system: T4, Rep nickase domain of chickpea chlorotic dwarf virus
T4 sequence (Rep 1-124, printed without the tag): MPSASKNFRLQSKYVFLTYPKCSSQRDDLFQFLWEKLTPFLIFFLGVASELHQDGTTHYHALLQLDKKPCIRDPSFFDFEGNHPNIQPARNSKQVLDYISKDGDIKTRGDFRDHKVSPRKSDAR
Protocol: as §1

[5] = test system: T5, Rep nickase domain of faba bean necrotic yellows virus
T5 sequence (Rep 1-98, printed without the tag): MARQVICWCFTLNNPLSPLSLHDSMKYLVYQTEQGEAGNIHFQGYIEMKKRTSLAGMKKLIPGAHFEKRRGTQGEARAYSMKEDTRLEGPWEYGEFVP
Protocol: as §1

[6] = test system: T6, Rep nickase domain of maize striate mosaic virus
T6 sequence (Rep 1-117, printed without the tag): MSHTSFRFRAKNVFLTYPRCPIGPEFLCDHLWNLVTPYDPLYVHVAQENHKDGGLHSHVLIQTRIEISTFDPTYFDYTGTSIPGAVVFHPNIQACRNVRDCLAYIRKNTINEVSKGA
Protocol: as §1

[7] = test system: T7, Rep nickase domain of porcine circovirus 2
T7 sequence (Rep 2-116, printed without the tag): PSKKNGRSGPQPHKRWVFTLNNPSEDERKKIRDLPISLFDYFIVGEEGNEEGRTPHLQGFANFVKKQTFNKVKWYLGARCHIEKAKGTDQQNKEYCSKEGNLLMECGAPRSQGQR
Protocol: as §1

[8] = test system: T8, Rep nickase domain of tomato yellow leaf curl virus
T8 sequence (Rep 1-136, printed without the tag): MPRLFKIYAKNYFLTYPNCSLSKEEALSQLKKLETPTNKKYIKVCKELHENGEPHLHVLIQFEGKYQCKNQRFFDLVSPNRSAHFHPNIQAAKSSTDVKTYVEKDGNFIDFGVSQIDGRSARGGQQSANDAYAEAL
Protocol: as §1

[9] = test system: T9, Rep nickase domain of wheat dwarf virus
T9 sequence (Rep 1-137, printed without the tag): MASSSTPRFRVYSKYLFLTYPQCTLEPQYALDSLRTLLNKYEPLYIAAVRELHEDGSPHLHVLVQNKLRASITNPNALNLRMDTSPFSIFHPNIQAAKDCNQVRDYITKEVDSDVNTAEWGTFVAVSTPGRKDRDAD
Protocol: as §1

Sequence	uncleaved DNA left (log2) [1]	uncleaved DNA left (log2) [2]	uncleaved DNA left (log2) [3]	uncleaved DNA left (log2) [4]	uncleaved DNA left (log2) [5]	uncleaved DNA left (log2) [6]	uncleaved DNA left (log2) [7]	uncleaved DNA left (log2) [8]	uncleaved DNA left (log2) [9]
ACTACAT	0.0535	0.12	0.0756	-0.352	-0.0461	-0.113	-0.997	0.00241	0.138
CAAATCG	0.0632	0.121	-0.744	0.326	0.038	-0.749	0.244	0.0269	0.0541
CGATACA	0.0844	0.159	0.165	-1.03	0.024	0.252	0.103	0.0809	0.192
CAGAATT	-0.0956	-3.4	-0.617	-2.69	-2.46	-0.393	-3.94	0.00172	-0.139
AAAAGCC	0.063	0.106	-0.442	-0.815	0.136	-0.957	0.16	0.102	-0.0209
GCTCGCC	0.00718	-0.0785	0.228	0.747	-0.072	0.547	0.0732	-0.0994	-0.0386
CTATGTT	-3.48	-0.791	-3.39	-2.61	-0.254	-2.38	-3.48	-0.00591	-2.37
CATTATG	0.0658	0.023	-0.818	-0.445	0.0899	-0.989	0.258	0.199	0.0388
GTAAGCT	-0.087	-0.0771	-0.468	-1.46	-0.0242	0.897	0.00714	-0.0379	-0.0589
CTTAAAA	-0.0433	0.12	-0.0122	0.0589	0.023	-0.77	0.036	-0.0399	0.131
GTGCATG	-0.0167	-0.0477	-0.0483	0.434	-0.103	-0.0344	0.0829	-0.0667	-0.0287
TTCGGCA	-0.0462	0.000826	0.00244	-0.412	0.0444	-0.786	-0.168	0.0411	0.0227
CTATTCG	-0.156	-0.0344	-0.732	0.594	-0.0129	-0.606	-0.0986	-0.0216	-0.0254
ATACGCG	0.00736	0.0396	-0.352	0.951	0.133	0.113	0.124	-0.0481	-0.0817
CTTCTGC	0.075	-0.0152	-0.446	-0.661	0.0689	-0.93	0.095	0.144	0.0713
CAAAACT	0.00501	0.00456	-3.01	-3.49	0.0353	-1.43	-1.07	0.0869	-1.32
CATCTTT	-0.156	-0.385	-0.404	-3.1	-0.0386	-0.806	-2.19	0.0176	-0.137
GCGGCTA	0.13	0.126	0.287	0.923	0.128	1.74	0.181	0.0401	0.189
TAAGCAG	-0.0589	-0.134	-0.403	-0.51	-0.0969	-0.816	0.0414	-0.0806	-0.0947
CTATAGA	0.0646	0.0873	-0.163	-0.268	0.0951	-1.15	0.0507	0.0696	0.158

Sequence	uncleaved DNA left (log2) [1]	uncleaved DNA left (log2) [2]	uncleaved DNA left (log2) [3]	uncleaved DNA left (log2) [4]	uncleaved DNA left (log2) [5]	uncleaved DNA left (log2) [6]	uncleaved DNA left (log2) [7]	uncleaved DNA left (log2) [8]	uncleaved DNA left (log2) [9]
ACCCCGG	-0.0445	0.0425	-0.216	-0.0246	0.102	-0.345	0.168	-0.0455	-0.14
ATCCAGT	0.0321	0.0914	-0.204	-0.67	0.0135	-0.895	-0.0309	-0.086	0.0812
AATCCTG	-0.0239	-0.0372	-0.00942	0.407	0.00468	0.794	0.00269	-0.145	-0.00443
TTAGGGT	0.142	0.105	0.442	1.35	0.0625	1.77	0.031	0.00403	0.0826
TAGATGA	0.152	0.106	0.238	0.379	0.14	0.609	-0.0612	0.0412	0.0856
AATCCGA	-0.105	-0.0886	-0.285	-0.305	-0.0481	-1.02	0.126	-0.131	-0.0796
ATACGAT	0.166	0.046	0.138	0.399	0.0881	0.957	0.136	-0.0225	0.0366
GGTGATT	-0.0643	0.0146	0.642	1.64	-0.0887	2.11	0.0918	-0.0588	0.0274
GTTTTCA	0.103	0.123	0.395	1.01	-0.00675	1.9	0.181	0.136	0.192
ACCCCGA	-0.016	-0.032	-0.438	-0.432	-0.00245	-1.2	0.0418	-0.0341	-0.0788
AACTCGC	0.0429	-0.00705	-0.586	-0.871	-0.0121	-1.27	-0.12	0.0316	-0.0513
AGCCAGA	-0.105	-0.0689	-0.00159	0.212	-0.153	-0.0535	-0.027	-0.0428	-0.125
AATGTTT	0.0956	-0.246	-0.641	-2.17	0.0355	0.185	-2.05	-0.0529	-0.208
AGGGTTT	-0.066	0.0722	0.269	0.838	0.0364	1.48	0.0774	0.0248	0.00699
CTGATTG	-0.0176	-0.0764	-0.3	0.307	0.0826	-0.326	-0.0156	-0.0387	-0.0144
ATCGCAT	0.165	-0.0224	-0.243	-0.362	-0.104	-0.715	0.0143	-0.146	-0.0963
ACTAGTC	0.0198	0.0482	-0.196	-0.169	0.0273	-0.903	0.0805	0.0647	-0.0474
CGTTGGT	-0.186	0.143	-0.0773	-0.228	0.0734	-0.62	-0.62	0.238	0.0482
AGCGTTT	0.0933	0.0705	-0.0367	-0.484	-0.00858	0.668	-0.552	0.0622	0.139
TACTTAA	-0.236	-0.0157	-0.182	-1.31	0.0432	-0.395	-2.53	0.0124	-0.000247

Sequence	uncleaved DNA left (log2) [1]	uncleaved DNA left (log2) [2]	uncleaved DNA left (log2) [3]	uncleaved DNA left (log2) [4]	uncleaved DNA left (log2) [5]	uncleaved DNA left (log2) [6]	uncleaved DNA left (log2) [7]	uncleaved DNA left (log2) [8]	uncleaved DNA left (log2) [9]
GCCGGTA	0.141	-0.0301	0.28	0.498	0.00272	0.463	0.142	-0.068	0.0573
GACCAGC	-0.12	-0.00494	-0.0787	0.345	-0.142	-0.433	-0.00853	0.0132	-0.124
ATAATAC	-0.711	-0.00811	0.0792	-1.59	-0.0135	-0.992	-1.03	-0.178	-0.0305
TTGCATA	0.0477	0.127	-0.339	-0.845	0.0698	-1.07	0.0862	0.14	0.0106
GCTGCAA	-0.0502	0.129	0.0251	0.442	0.0127	-0.0299	0.144	0.0175	0.102
TCACAAC	-0.0228	0.049	-0.0541	-1.74	0.138	-0.543	0.0901	-0.00953	-0.108
GCTGGGA	0.0792	-0.0153	0.129	0.639	-0.11	0.602	0.0874	-0.0214	-0.131
GGCGGGA	0.0999	0.143	0.727	1.31	0.111	1.79	0.37	0.166	0.229
TATCGCG	0.0512	0.00638	-0.671	0.773	-0.00391	-0.447	0.116	0.021	-0.12
ATCTTTT	-3.26	-1.1	-0.475	-2.38	-0.141	-0.941	-3.69	-0.154	-0.128
ACATCCC	-0.125	-0.121	-0.251	0.155	-0.0698	-0.125	-0.0774	-0.153	-0.0536
GTATCAA	0.0818	0.108	0.337	0.996	-0.0113	1.73	0.0247	0.0734	0.153
CATGCAT	-0.13	-0.135	-0.545	-1.06	-0.111	-1.27	-0.0582	-0.129	-0.185
CACAGTA	-0.00219	-0.0327	-0.266	-2.15	-0.00828	-0.709	-0.137	0.078	0.054
CGTACCA	0.0252	0.191	0.0666	-0.815	0.111	-0.0824	-0.385	0.0929	0.071
CGCTAGA	-0.109	-0.136	-0.227	-0.28	0.000287	-0.657	-0.0204	-0.0669	-0.192
GCATATG	0.0608	0.0211	-0.376	-0.209	0.0794	-0.613	0.168	0.137	-0.121
GGGGTAA	-0.0432	-0.028	0.756	1.79	-0.124	2.16	0.103	0.0504	0.0864
AATGACA	0.0415	0.0547	0.0592	0.0209	-0.0314	0.515	-0.025	0.1	0.0862
ATCGTTT	-0.181	-0.15	-0.147	-2.17	-0.0928	-0.585	-0.151	-0.124	-0.164

Source: the supplement of paper PMC7826260
